Assay results from publication PMC6656775, “Soluble and membrane-bound protein carrier mediate direct copper transport to the ethylene receptor family” (Scientific Reports, 2019).
These are yes or no findings as the source states them, for the method shown. Binding seen in cells or lysates may run through a third protein. Tags and fused reporters may be left off the sequences shown.

Assays:
Assay in all cases: split reporter; BiFC (split YFP, 2in1 vectors with RFP infiltration control) in transiently transformed N. benthamiana leaves, confocal microscopy; full-length ETR1 constructs under an inducible promoter, ERS1 and ETR1^1–157 constructs constitutive (d35S)
[1] = target: T1, ANTIOXIDANT-1 (ATX1), BiFC fusion (A. thaliana) (UniProt Q94BT9)
T1 sequence: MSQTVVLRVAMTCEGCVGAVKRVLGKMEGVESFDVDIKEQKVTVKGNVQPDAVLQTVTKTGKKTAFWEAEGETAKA

[2] = target: T2, COPPER TRANSPORT PROTEIN (CCH), BiFC fusion (A. thaliana) (UniProt O82089)
T2 sequence: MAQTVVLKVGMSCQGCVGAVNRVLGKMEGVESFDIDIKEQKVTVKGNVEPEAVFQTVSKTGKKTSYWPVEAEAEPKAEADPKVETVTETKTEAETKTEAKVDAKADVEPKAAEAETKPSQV

[3] = target: T3, ETR1^1–157, BiFC fusion (A. thaliana) (UniProt P49333)
T3 sequence: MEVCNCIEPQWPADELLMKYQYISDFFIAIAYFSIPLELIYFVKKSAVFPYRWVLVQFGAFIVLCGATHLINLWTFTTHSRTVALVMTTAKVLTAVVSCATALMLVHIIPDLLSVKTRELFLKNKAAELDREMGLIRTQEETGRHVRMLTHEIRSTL

[4] = target: T4, RESPONSIVE-TO-ANTAGONIST-1 (RAN1), full-length, BiFC fusion (A. thaliana) (UniProt Q9S7J8)
T4 sequence: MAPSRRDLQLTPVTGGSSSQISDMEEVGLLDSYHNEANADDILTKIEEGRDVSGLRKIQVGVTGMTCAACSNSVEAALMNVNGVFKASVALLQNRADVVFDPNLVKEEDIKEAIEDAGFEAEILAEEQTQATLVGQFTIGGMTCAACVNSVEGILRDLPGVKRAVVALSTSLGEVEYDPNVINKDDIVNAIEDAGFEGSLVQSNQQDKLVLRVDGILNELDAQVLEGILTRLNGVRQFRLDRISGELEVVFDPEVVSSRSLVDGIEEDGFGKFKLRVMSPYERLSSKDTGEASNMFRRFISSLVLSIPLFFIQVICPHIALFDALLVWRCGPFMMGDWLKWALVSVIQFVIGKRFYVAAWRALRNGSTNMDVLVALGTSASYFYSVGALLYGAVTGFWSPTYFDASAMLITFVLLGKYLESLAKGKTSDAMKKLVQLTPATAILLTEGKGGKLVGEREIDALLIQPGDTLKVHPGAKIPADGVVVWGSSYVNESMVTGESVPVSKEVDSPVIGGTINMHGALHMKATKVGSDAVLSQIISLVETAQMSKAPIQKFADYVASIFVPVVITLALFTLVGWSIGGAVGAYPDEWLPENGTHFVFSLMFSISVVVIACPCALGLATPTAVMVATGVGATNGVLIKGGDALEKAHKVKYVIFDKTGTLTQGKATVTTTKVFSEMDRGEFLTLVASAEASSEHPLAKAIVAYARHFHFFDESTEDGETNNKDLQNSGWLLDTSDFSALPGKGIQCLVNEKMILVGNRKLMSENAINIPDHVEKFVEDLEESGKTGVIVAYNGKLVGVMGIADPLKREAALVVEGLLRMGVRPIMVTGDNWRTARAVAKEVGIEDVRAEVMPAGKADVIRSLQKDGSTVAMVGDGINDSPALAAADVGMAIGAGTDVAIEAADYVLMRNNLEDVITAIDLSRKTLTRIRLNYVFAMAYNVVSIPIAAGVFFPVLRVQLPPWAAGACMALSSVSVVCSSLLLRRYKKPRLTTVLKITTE

[5] = target: T5, ethylene receptor ERS1, BiFC fusion (UniProt Q38846)
T5 sequence: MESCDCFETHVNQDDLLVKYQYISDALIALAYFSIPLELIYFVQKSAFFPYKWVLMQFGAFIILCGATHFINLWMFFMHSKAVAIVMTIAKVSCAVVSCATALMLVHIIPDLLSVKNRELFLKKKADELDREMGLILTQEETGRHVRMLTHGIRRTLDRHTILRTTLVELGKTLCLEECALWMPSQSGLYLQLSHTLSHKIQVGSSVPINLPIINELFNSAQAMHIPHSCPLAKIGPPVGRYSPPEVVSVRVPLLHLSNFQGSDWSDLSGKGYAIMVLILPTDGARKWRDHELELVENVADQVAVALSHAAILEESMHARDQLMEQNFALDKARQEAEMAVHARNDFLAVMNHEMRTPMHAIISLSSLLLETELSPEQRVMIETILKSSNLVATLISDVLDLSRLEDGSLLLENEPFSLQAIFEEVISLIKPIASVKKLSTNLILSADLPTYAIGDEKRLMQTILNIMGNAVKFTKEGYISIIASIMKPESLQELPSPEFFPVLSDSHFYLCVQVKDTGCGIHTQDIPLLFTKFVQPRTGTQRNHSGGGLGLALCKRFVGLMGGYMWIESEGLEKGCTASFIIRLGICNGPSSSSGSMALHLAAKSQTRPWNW

[6] = target: T6, ethylene receptor ETR1, full-length, BiFC fusion (A. thaliana) (UniProt P49333)
T6 sequence: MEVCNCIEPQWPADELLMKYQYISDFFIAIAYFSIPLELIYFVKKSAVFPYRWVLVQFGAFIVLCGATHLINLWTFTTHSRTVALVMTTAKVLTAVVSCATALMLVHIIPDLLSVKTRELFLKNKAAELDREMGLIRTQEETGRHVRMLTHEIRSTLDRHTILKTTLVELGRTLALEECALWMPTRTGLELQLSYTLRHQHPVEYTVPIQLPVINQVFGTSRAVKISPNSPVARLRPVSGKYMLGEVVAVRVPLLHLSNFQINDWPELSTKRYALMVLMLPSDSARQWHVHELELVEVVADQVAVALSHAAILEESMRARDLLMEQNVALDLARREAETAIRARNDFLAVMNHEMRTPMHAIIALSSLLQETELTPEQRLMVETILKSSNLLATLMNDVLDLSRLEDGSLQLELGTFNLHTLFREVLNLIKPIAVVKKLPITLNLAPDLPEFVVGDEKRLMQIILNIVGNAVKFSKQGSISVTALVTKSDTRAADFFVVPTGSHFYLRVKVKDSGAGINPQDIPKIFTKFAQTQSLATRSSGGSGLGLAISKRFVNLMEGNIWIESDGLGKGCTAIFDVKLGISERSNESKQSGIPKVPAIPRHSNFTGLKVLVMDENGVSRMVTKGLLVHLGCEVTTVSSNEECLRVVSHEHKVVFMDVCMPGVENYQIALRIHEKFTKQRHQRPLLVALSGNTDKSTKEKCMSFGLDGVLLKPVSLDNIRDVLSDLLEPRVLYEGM

- binding [1]: no binding
- binding [2]: no binding
- binding [3]: no binding
- binding [4]: no binding
- binding [5]: no binding
- binding [6]: no binding
B1: Receptor-like protein CLAVATA2 (CLV2), BiFC negative control (protein, UniProt O80809 26-720)
chain: QLPDLDPQDKASLLIFRVSIHDLNRSLSTWYGSSCSNWTGLACQNPTGKVLSLTLSGLNLSSQIHPSLCKLSSLQSLDLSHNNFSGNIPSCFGSLRNLRTLNLSRNRFVGSIPATFVSLKELREVVLSENRDLGGVVPHWFGNFSMNLERVDFSFCSFVGELPESLLYLKSLKYLNLESNNMTGTLRDFQQPLVVLNLASNQFSGTLPCFYASRPSLSILNIAENSLVGGLPSCLGSLKELSHLNLSFNGFNYEISPRLMFSEKLVMLDLSHNGFSGRLPSRISETTEKLGLVLLDLSHNSFSGDIPLRITELKSLQALRLSHNLLTGDIPARIGNLTYLQVIDLSHNALTGSIPLNIVGCFQLLALMISNNNLSGEIQPELDALDSLKILDISNNHISGEIPLTLAGLKSLEIVDISSNNLSGNLNEAITKWSNLKYLSLARNKFSGTLPSWLFKFDKIQMIDYSSNRFSWFIPDDNLNSTRFKDFQTGGGEGFAEPPGKVEIKISAAVVAKDELSFSYNLLSMVGIDLSDNLLHGEIPEALFRQKNIEYLNLSYNFLEGQLPRLEKLPRLKALDLSHNSLSGQVIGNISAPPGLTLLNLSHNCFSGIITEKEGLGKFPGALAGNPELCVETPGSKCDPANIDASQEEIYQNELVEGPISIWIFCLSAFISFDFGVLGIFCSARARSYILQTKA
